Among all 94,000 compounds or so, about 4,000 (4.3%) were called active. Inconclusive means that the source gave no clear call. Such entries were picked first, then a sample of the others. The call rests on the fitted dose curve; in most records, active means well fitted inhibition curve with a large enough effect; inconclusive means small, poorly fitted or top-dose-only effect; inactive means no such curve, though single readings can be large or run the other way. Potencies of inconclusive entries are doubtful fits and often do not repeat.
Experiment: Cytotoxic Profiling in NIH 3T3 Cell Line of Diverse Libraries Using Quantitative High-Throughput Screening; further: nearly all actives have a fitted effect of over 55% in size
Details: NIH 3T3 viability, CellTiter-Glo ATP luminescence, 48-72 h; series mostly up to 96.7 µM
Procedure, shortened: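 First NIH 3T3 cells are plated at 400 cells/well; next compound is pinned in; then plates incubate 48 or 72 hr at 37 °C; finally CellTiter-Glo is added and luminescence read after 10 min.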
Potency means the concentration at half of the fitted maximal effect; tags describe the fitted curve by direction and shape.

**Q.** For `Cc1nc2c(c(-c3ccc(O)cc3)n1)CN(C(=O)c1ccc(F)cc1)CC2`, which Potency is on record?
**A.** Its Potency is “inactive”.

**Q.** With `Cc1ccc(C(=O)N2CCCC(C(=O)N3CCC(c4nc5ncccc5[nH]4)CC3)C2)cc1` (stereo unspecified) as the compound, how does the Potency read?
**A.** The Potency was “inactive”.

**Q.** For `COc1ccc(CN2C[C@@H]3C[C@@H](C(N)=O)N(C(=O)CC4CCCC4)c4cccc(c43)C2=O)cc1`, which Potency is on record?
**A.** Its Potency is inconclusive: 10 µM [inhibitor, partial curve, poor fit].

**Q.** For `Cc1cc(C[C@@H]2COC[C@@H]2NC(=O)c2ccc3nc(C)sc3c2)on1`, which Potency is on record?
**A.** The Potency was “inactive”.

**Q.** With `Cc1cc(C)n(CCC(=O)NC2CCCN(c3cc(-c4ccc(Cl)cc4)[nH]n3)C2)n1` (stereo unspecified) as the compound, how does the Potency read?
**A.** The Potency was inconclusive: 50.1 µM [inhibitor, partial curve, poor fit].

**Q.** Which Potency does the source give for `Cc1ccc(C(=O)NC(C(=O)N2CCCC2)C2CCN(C(=O)c3ccccc3F)CC2)cc1` (stereo unspecified) here?
**A.** Its Potency is “inactive”.

**Q.** Which Potency does the source give for `COc1ccccc1Cn1c(=O)c(C(=O)NCCc2ccccc2)nc2cccnc21` here?
**A.** The Potency was inconclusive: 50.1 µM [inhibitor, partial curve, poor fit].

**Q.** Which Potency does the source give for `C[C@H]1[C@@H]2[C@@H](O)C([C@H](C)C(=O)N3CCC(Cc4ccccc4)CC3)CC[C@@]2(C)CC[C@@H]1NC(=O)c1cnccn1` (stereo partly specified) here?
**A.** Its Potency is inconclusive: 70.8 µM [inhibitor, partial curve, poor fit].

**Q.** Which Potency does the source give for `CN(C)c1ccc2nnc(-c3cc(C(=O)Nc4cccc(Cl)c4)ccn3)n2n1` here?
**A.** Its Potency is active: 7.94 µM.

**Q.** For `CC(=O)NCC(=O)N1Cc2ccccc2CC2(CCCN(CC3CCOCC3)C2)C1` (stereo unspecified), which Potency is on record?
**A.** Its Potency is “inactive”.

**Q.** Which Potency does the source give for `COc1ccc(CN2C=C(C(=O)OCc3noc(-c4ccccc4C)n3)C(C)=NS2(=O)=O)cc1` here?
**A.** The Potency was inconclusive: 11.2 µM [inhibitor, full curve, poor fit].

**Q.** With `O=C(NCc1ccncc1)c1nc2c(o1)CCN(Cc1ccccc1F)CC2` as the compound, how does the Potency read?
**A.** The Potency was “inactive”.

**Q.** Which Potency does the source give for `COc1ccc(Cl)cc1NC(=O)CCC1CCCN(C(=O)c2ccoc2C)C1` (stereo unspecified) here?
**A.** Its Potency is inconclusive: 50.1 µM [inhibitor, partial curve, poor fit].

**Q.** For `O=C(NCc1ccc(Cl)cc1)C1CCc2nnc(-c3cccc(C(F)(F)F)c3)n21` (stereo unspecified), which Potency is on record?
**A.** Its Potency is inconclusive: 44.7 µM [inhibitor, partial curve, poor fit].

**Q.** For `O=C(c1cccc(F)c1)N1CCC2(CC1)N=C(c1ccc(Cl)cc1)NO2`, which Potency is on record?
**A.** The Potency was inconclusive: 35.5 µM [inhibitor, partial curve, poor fit].

**Q.** With `CCOc1ccc(C(=O)N2CCCC3(C2)NC(=O)N(Cc2cccc(Cl)c2)C3=O)cc1` (stereo unspecified) as the compound, how does the Potency read?
**A.** Its Potency is “inactive”.

**Q.** With `CC1CCCN(c2ncnc3c2CN(c2ccc(Cl)cc2)C(=O)CN3C)C1` (stereo unspecified) as the compound, how does the Potency read?
**A.** Its Potency is inconclusive: 50.1 µM [inhibitor, partial curve, poor fit].

**Q.** For `O=C(CNC(=O)c1cccc(-c2ccsc2)c1)NCc1ccccc1`, which Potency is on record?
**A.** Its Potency is inconclusive: 44.7 µM [inhibitor, partial curve, poor fit].

**Q.** With `O=C(NCC1(COc2cccnc2)C[C@@H](O)[C@@H](O)C1)C1CC1` (stereo partly specified) as the compound, how does the Potency read?
**A.** The Potency was inconclusive: 20 µM [inhibitor, full curve, poor fit].

**Q.** For `CCn1ccc(C(=O)N2CCC(n3c(C)cnc3C3CCC3)C2)n1` (stereo unspecified), which Potency is on record?
**A.** Its Potency is “inactive”.

**Q.** With `CN(C)CC1(O)CCCN(Cc2ccc(CCN)cc2)C1` (stereo unspecified) as the compound, how does the Potency read?
**A.** The Potency was inconclusive: 89.1 µM [inhibitor, single point].

**Q.** With `CCCc1cc(N2CCC(NCc3cc(F)c(F)c(F)c3)CC2)nc(C)n1` as the compound, how does the Potency read?
**A.** The Potency was inconclusive: 50.1 µM [inhibitor, partial curve, poor fit].

**Q.** With `O=C1Nc2ccccc2CN(CC2CCCC2)C12CCNC2` (stereo unspecified) as the compound, how does the Potency read?
**A.** The Potency was inconclusive: 89.1 µM [inhibitor, single point].

**Q.** For `Cc1ccc(-n2cccn2)c(CN2CCCC(CCC(=O)Nc3ccccc3F)C2)c1` (stereo unspecified), which Potency is on record?
**A.** Its Potency is inconclusive: 22.4 µM [inhibitor, full curve].

**Q.** With `Cc1noc(-c2cn(C3CCN(C(=O)c4cc5ccccc5[nH]4)CC3)nn2)n1` as the compound, how does the Potency read?
**A.** The Potency was inconclusive: 31.6 µM [inhibitor, partial curve].

**Q.** With `CN(Cc1ccccc1)Cc1cn([C@H]2CO[C@H]3[C@@H]2OC[C@@H]3NC(=O)Nc2cccc(C(F)(F)F)c2)nn1` as the compound, how does the Potency read?
**A.** Its Potency is inconclusive: 89.1 µM [inhibitor, single point].

**Q.** With `Cc1c(Cl)cccc1NC(=O)c1cnc(-c2ccccc2)nc1-c1ccncc1` as the compound, how does the Potency read?
**A.** The Potency was active: 35.5 µM.

**Q.** With `O=C(NCCc1ccccc1F)c1ccc2oc(-c3ccncc3)nc2c1` as the compound, how does the Potency read?
**A.** Its Potency is “inactive”.

**Q.** Which Potency does the source give for `CC(=O)N1CCC(NC[C@@H]2C=C(C)[C@H](Cc3nc4ccccc4n3C)C[C@H]2C(C)C)CC1` here?
**A.** Its Potency is “inactive”.

**Q.** For `COc1ccc(CCNC(=O)c2cc(-c3ccsc3)nc3c2cnn3C)cc1`, which Potency is on record?
**A.** The Potency was “inactive”.

**Q.** For `Fc1ccc(CNC[C@H]2Cn3c(-c4ccc(F)cc4)cnc3CO2)cc1`, which Potency is on record?
**A.** The Potency was inconclusive: 89.1 µM [inhibitor, partial curve, poor fit].

**Q.** With `COCCNC(=O)[C@@H]1C[C@H](Oc2ccccc2)CN1S(=O)(=O)Cc1ccccc1` as the compound, how does the Potency read?
**A.** The Potency was “inactive”.

**Q.** With `Cc1cc(C)cc(-c2ccc(CN3CCCC3C(=O)NC3CCCC3)cc2)c1` (stereo unspecified) as the compound, how does the Potency read?
**A.** The Potency was active: 22.4 µM.

**Q.** Which Potency does the source give for `COc1ccc(C(=O)N2CCC(N3C(=O)c4c(c(C)nn4-c4ccccc4)C3C)C2)cc1` (stereo unspecified) here?
**A.** Its Potency is inconclusive: 10 µM [inhibitor, partial curve, poor fit].

**Q.** Which Potency does the source give for `O=C(c1ccsc1)N1CCCC(n2cc(-c3nc(C4CC4)no3)nn2)C1` (stereo unspecified) here?
**A.** The Potency was inconclusive: 56.2 µM [inhibitor, partial curve, poor fit].

**Q.** With `CCCS(=O)(=O)N1CCC2(CC1)CC2c1noc(C)n1` (stereo unspecified) as the compound, how does the Potency read?
**A.** Its Potency is inconclusive: 89.1 µM [inhibitor, partial curve, poor fit].

**Q.** With `O=C(NC1CCCCCC1)C1CN(c2ccnc3ccnn23)C1` as the compound, how does the Potency read?
**A.** The Potency was inconclusive: 44.7 µM [inhibitor, partial curve, poor fit].

**Q.** Which Potency does the source give for `Cn1c(CN2CCN(CCN3CCOCC3)CC2)nnc1C1CC(N)C1` (stereo unspecified) here?
**A.** The Potency was “inactive”.

**Q.** Which Potency does the source give for `COc1ccc(CCNC(=O)c2cc(-c3cccnc3)nc3c2cnn3C)cc1` here?
**A.** Its Potency is inconclusive: 50.1 µM [inhibitor, partial curve, poor fit].

**Q.** For `CCOC(=O)C1CCN(C(=O)c2nc3sccn3c2-c2cccnc2)CC1`, which Potency is on record?
**A.** The Potency was “inactive”.

**Q.** Which Potency does the source give for `Cc1ccc(N2CC(c3noc(-c4ccccc4Cl)n3)CC2=O)cc1` (stereo unspecified) here?
**A.** The Potency was inconclusive: 39.8 µM [inhibitor, partial curve, poor fit].
